Assay results reported in patent US11420968B2 (priority 2018, dated 2022).
Where two headings read alike, the source gives them in different places.

How the values were obtained:
Molt-4 cells = test: cells; conditions: Homo sapiens
RS4;11 cells = test: cells; conditions: Homo sapiens
[1] = MOLT-4, read-out: Cellular activity (IC50, nM) Molt-4
[2] = RS4-11, 48 h, read-out: Cellular activity (IC50, nM) RS4, 11
[3] = RS4-11, 48 h, read-out: Cellular activity (IC50, nM) RS4;11

Structure (SMILES) | IC50 (Molt-4 cells; [1]) [nM] | IC50 (RS4;11 cells; [2]) [nM] | IC50 (RS4;11 cells; [3]) [nM] | IC50 (Molt-4 cells; MOLT-4, read-out: Celluclar activity (IC50, nM) Molt-4) [nM] | IC50 (RS4;11 cells; RS4-11, read-out: Celluclar activity (IC50, nM) RS 4, 11) [nM]
O=C(NS(=O)(=O)c1ccc(NC(=O)N2CCOCC2)c([N+](=O)[O-])c1)c1ccc(C2=CCC(N3CCCC3c3ccccc3C3CC3)CC2)cc1Oc1cnc2[nH]ccc2c1 (stereo not drawn) [Example G84, N-(4-(N-(3-((1H-pyrrolo[2,3-b]pyridin-5-yl)oxy)-4′-(2-(2-cyclopropylphenyl)pyrrolidin-1-yl)-2′,3′,4′,5′-tetrahydro-[1,1′-biphenyl]-4-carbonyl)sulfamoyl)-2-nitrophenyl)morpholine-4-carboxamide] | 7310 | 117 | – | – | –
CN(C)C(=O)CN1CCC(c2ccccc2[C@H]2CCCN2c2ccc(-c3ccc(C(=O)NS(=O)(=O)c4ccc(NCC5CCOCC5)c([N+](=O)[O-])c4)c(Oc4cnc5[nH]ccc5c4)c3)cc2)CC1 [Example A104, (R)-3-((1H-pyrrolo[2,3-b]pyridin-5-yl)oxy)-4′-(2-(2-(1-(2-(dimethylamino)-2-oxoethyl)piperidin-4-yl)phenyl)pyrrolidin-1-yl)-N-((3-nitro-4-(((tetrahydro-2H-pyran-4-yl)methyl)amino)phenyl)sulfonyl)-[1,1′-biphenyl]-4-carboxamide] | 4610 | – | 16 | – | –
O=C(NS(=O)(=O)c1ccc(NCC2(O)COC2)c([N+](=O)[O-])c1)c1ccc(-c2ccc(N3CCCC3c3ccccc3Cl)cc2)cc1Oc1cnc2[nH]ccc2c1 (stereo not drawn) [Example G5, 3-((1H-pyrrolo[2,3-b]pyridin-5-yl)oxy)-4′-(2-(2-chlorophenyl)pyrrolidin-1-yl)-N-((4-(((3-hydroxyoxetan-3-yl)methyl)amino)-3-nitrophenyl)sulfonyl)-[1,1′-biphenyl]-4-carboxamide] | 4700 | 197 | – | – | –
O=C(NS(=O)(=O)c1ccc(OCC2CCC3(CC2)COC3)c([N+](=O)[O-])c1)c1ccc(C2=CCC(N3CCCC3c3ccccc3C3CC3)CC2)cc1Oc1cnc2[nH]ccc2c1 (stereo not drawn) [Example G12, 3-((1H-pyrrolo[2,3-b]pyridin-5-yl)oxy)-N-((4-((2-oxaspiro[3.5]nonan-7-yl)methoxy)-3-nitrophenyl)sulfonyl)-4′-(2-(2-cyclopropylphenyl)pyrrolidin-1-yl)-2′,3′,4′,5′-tetrahydro-[1,1′-biphenyl]-4-carboxamide] | > 10000 | 51 | – | – | –
CCc1ccccc1[C@@H]1CCCN1C1CC2(C1)CN(c1ccc(C(=O)NS(=O)(=O)c3ccc(NC[C@H]4CC[C@](C)(O)CC4)c([N+](=O)[O-])c3)c(Oc3cnc4[nH]ccc4c3)c1)C2 [Example F111, 2-((1H-pyrrolo[2,3-b]pyridin-5-yl)oxy)-4-(6-((S)-2-(2-ethylphenyl)pyrrolidin-1-yl)-2-azaspiro[3.3]heptan-2-yl)-N-((4-((((1r,4r)-4-hydroxy-4-methylcyclohexyl)methyl)amino)-3-nitrophenyl)sulfonyl)benzamide] | 1660 | – | 0.4 | 1660 | 0.4
CN(C)C1CC(c2ccccc2C2CC2)N(c2ccc(-c3ccc(C(=O)NS(=O)(=O)c4ccc(NCC5CCOCC5)c([N+](=O)[O-])c4)c(Oc4cnc5[nH]ccc5c4)c3)cc2)C1 (stereo not drawn) [Example A151, 3-((1H-pyrrolo[2,3-b]pyridin-5-yl)oxy)-4′-(2-(2-cyclopropylphenyl)-4-(dimethylamino)pyrrolidin-1-yl)-N-((3-nitro-4-(((tetrahydro-2H-pyran-4-yl)methyl)amino)phenyl)sulfonyl)-[1,1′-biphenyl]-4-carboxamide] | > 10000 | – | 26 | – | –
C[C@]1(O)CC[C@H](CNc2ccc(S(=O)(=O)NC(=O)c3ccc(C4=CCC5(CC4)CC(N4CCC[C@H]4c4ccccc4C4CC4)C5)cc3Oc3cnc4[nH]ccc4c3)cc2[N+](=O)[O-])CC1 (stereo partly drawn) [Example F125, 2-((1H-pyrrolo[2,3-b]pyridin-5-yl)oxy)-4-(2-((S)-2-(2-cyclopropylphenyl)pyrrolidin-1-yl)spiro[3.5]non-6-en-7-yl)-N-((4-((((1r,4r)-4-hydroxy-4-methylcyclohexyl)methyl)amino)-3-nitrophenyl)sulfonyl)benzamide] | > 10000 | – | 30 | – | –
O=C(NS(=O)(=O)c1ccc(NCC2CCOCC2)c([N+](=O)[O-])c1)c1ccc(C2=CCC(N3CCCC3c3cccc(Cl)c3C3CC3)CC2)cc1Oc1cnc2[nH]ccc2c1 (stereo not drawn) [Example C51, 3-((1H-pyrrolo[2,3-b]pyridin-5-yl)oxy)-4′-(2-(3-chloro-2-cyclopropylphenyl)pyrrolidin-1-yl)-N-((3-nitro-4-(((tetrahydro-2H-pyran-4-yl)methyl)amino)phenyl)sulfonyl)-2′,3′,4′,5′-tetrahydro-[1,1′-biphenyl]-4-carboxamide] | 9480 | 59 | – | – | –
O=C(NS(=O)(=O)c1ccc(NC[C@H]2COCCO2)c([N+](=O)[O-])c1)c1ccc(N2CC3(CC(N4CCC[C@H]4c4ccccc4C4CC4)C3)C2)cc1Oc1cnc2[nH]ccc2c1 [Example F107, N-((4-((((S)-1,4-dioxan-2-yl)methyl)amino)-3-nitrophenyl)sulfonyl)-2-((1H-pyrrolo[2,3-b]pyridin-5-yl)oxy)-4-(6-((S)-2-(2-cyclopropylphenyl)pyrrolidin-1-yl)-2-azaspiro[3.3]heptan-2-yl)benzamide] | 1020 | – | 0.9 | – | –
CN(c1ccccc1C1CCCN1C1CC=C(c2ccc(C(=O)NS(=O)(=O)c3ccc(NCC4CCOCC4)c([N+](=O)[O-])c3)c(Oc3cnc4[nH]ccc4c3)c2)CC1)C1CC1 (stereo not drawn) [Example C174, 3-((1H-pyrrolo[2,3-b]pyridin-5-yl)oxy)-4′-(2-(2-(cyclopropyl(methyl)amino)phenyl)pyrrolidin-1-yl)-N-((3-nitro-4-(((tetrahydro-2H-pyran-4-yl)methyl)amino)phenyl)sulfonyl)-2′,3′,4′,5′-tetrahydro-[1,1′-biphenyl]-4-carboxamide] | > 10000 | 260 | – | – | –
O=C(NS(=O)(=O)c1ccc(N2CC3(CCOCC3)C2)c([N+](=O)[O-])c1)c1ccc(-c2ccc(N3CCCC3c3ccccc3Cl)cc2)cc1Oc1cnc2[nH]ccc2c1 (stereo not drawn) [Example G7, 3-((1H-pyrrolo[2,3-b]pyridin-5-yl)oxy)-4′-(2-(2-chlorophenyl)pyrrolidin-1-yl)-N-((3-nitro-4-(7-oxa-2-azaspiro[3.5]nonan-2-yl)phenyl)sulfonyl)-[1,1′-biphenyl]-4-carboxamide] | > 10000 | 3850 | – | – | –
O=C(NS(=O)(=O)c1ccc(NCC2CCOCC2)c([N+](=O)[O-])c1)c1ccc(-c2ccc(N3C[C@H](F)C[C@@H]3c3ccccc3C3CC3)cc2)cc1Oc1cnc2[nH]ccc2c1 (single isomer, unassigned) [Example A145c, 3-((1H-pyrrolo[2,3-b]pyridin-5-yl)oxy)-4′-((2R,4R) or (2S,4S)-2-(2-cyclopropylphenyl)-4-fluoropyrrolidin-1-yl)-N-((3-nitro-4-(((tetrahydro-2H-pyran-4-yl)methyl)amino)phenyl)sulfonyl)-[1,1′-biphenyl]-4-carboxamide] | 782 | – | 6.8 | – | –
CC1=CCC(CNc2ccc(S(=O)(=O)NC(=O)c3ccc(-c4ccc(N5CCC[C@@H]5c5ccccc5C5CC5)cc4)cc3Oc3cnc4[nH]ccc4c3)cc2[N+](=O)[O-])CC1 (stereo partly drawn) [Example G102, 3-((1H-pyrrolo[2,3-b]pyridin-5-yl)oxy)-4′-((R)-2-(2-cyclopropylphenyl)pyrrolidin-1-yl)-N-((4-(((4-methylcyclohex-3-en-1-yl)methyl)amino)-3-nitrophenyl)sulfonyl)-[1,1′-biphenyl]-4-carboxamide] | > 10000 | – | 861 | – | –
O=C(NS(=O)(=O)c1ccc(NCC2CCOCC2)c([N+](=O)[O-])c1)c1ccc(-c2ccc(N3CCC[C@@H]3c3ccccc3C3CCS(=O)(=O)CC3)cc2)cc1Oc1cnc2[nH]ccc2c1 [Example A123, (R)-3-((1H-pyrrolo[2,3-b]pyridin-5-yl)oxy)-4′-(2-(2-(1,1-dioxidotetrahydro-2H-thiopyran-4-yl)phenyl)pyrrolidin-1-yl)-N-((3-nitro-4-(((tetrahydro-2H-pyran-4-yl)methyl)amino)phenyl)sulfonyl)-[1,1′-biphenyl]-4-carboxamide] | 3910 | – | 38.5 | – | –
CCCc1ccccc1C1CCCN1C1CC=C(c2ccc(C(=O)NS(=O)(=O)c3ccc(NCC4CCOCC4)c([N+](=O)[O-])c3)c(Oc3cnc4[nH]ccc4c3)c2)CC1 (stereo not drawn) [Example C14, 3-((1H-pyrrolo[2,3-b]pyridin-5-yl)oxy)-N-((3-nitro-4-(((tetrahydro-2H-pyran-4-yl)methyl)amino)phenyl)sulfonyl)-4′-(2-(2-propylphenyl)pyrrolidin-1-yl)-2′,3′,4′,5′-tetrahydro-[1,1′-biphenyl]-4-carboxamide] | 7930 | 93 | – | – | –
O=C(NS(=O)(=O)c1ccc(NC2CN(C3CCOCC3)C2)c([N+](=O)[O-])c1)c1ccc(-c2ccc(N3CCCC3c3ccccc3Cl)cc2)cc1Oc1cnc2[nH]ccc2c1 (stereo not drawn) [Example G3, 3-((1H-pyrrolo[2,3-b]pyridin-5-yl)oxy)-4′-(2-(2-chlorophenyl)pyrrolidin-1-yl)-N-((3-nitro-4-((1-(tetrahydro-2H-pyran-4-yl)azetidin-3-yl)amino)phenyl)sulfonyl)-[1,1′-biphenyl]-4-carboxamide] | > 10000 | 455 | – | – | –
CN1CC=C(c2ccccc2C2CCCN2c2ccc(-c3ccc(C(=O)NS(=O)(=O)c4ccc(NCC5CCOCC5)c([N+](=O)[O-])c4)c(Oc4cnc5[nH]ccc5c4)c3)cc2)CC1 (stereo not drawn) [Example A68, 3-((1H-pyrrolo[2,3-b]pyridin-5-yl)oxy)-4′-(2-(2-(1-methyl-1,2,3,6-tetrahydropyridin-4-yl)phenyl)pyrrolidin-1-yl)-N-((3-nitro-4-(((tetrahydro-2H-pyran-4-yl)methyl)amino)phenyl)sulfonyl)-[1,1′-biphenyl]-4-carboxamide] | > 10000 | 20 | – | – | –
